Measured values as given in paper PMC3660575.
No constants are given. Whether binding was seen depends on the method and setting. Binding seen in cells or lysates may run through a third protein. Some results given as binding are weak or reduced against the parent protein; the word gives no strength.

By UniProt entry, the sequences of proteins in these tests, tags left out. Where a name states a change or a piece, a line headed by the entry shows the natural chain unless it says otherwise. Residues count along the entry.
UniProt Q99523: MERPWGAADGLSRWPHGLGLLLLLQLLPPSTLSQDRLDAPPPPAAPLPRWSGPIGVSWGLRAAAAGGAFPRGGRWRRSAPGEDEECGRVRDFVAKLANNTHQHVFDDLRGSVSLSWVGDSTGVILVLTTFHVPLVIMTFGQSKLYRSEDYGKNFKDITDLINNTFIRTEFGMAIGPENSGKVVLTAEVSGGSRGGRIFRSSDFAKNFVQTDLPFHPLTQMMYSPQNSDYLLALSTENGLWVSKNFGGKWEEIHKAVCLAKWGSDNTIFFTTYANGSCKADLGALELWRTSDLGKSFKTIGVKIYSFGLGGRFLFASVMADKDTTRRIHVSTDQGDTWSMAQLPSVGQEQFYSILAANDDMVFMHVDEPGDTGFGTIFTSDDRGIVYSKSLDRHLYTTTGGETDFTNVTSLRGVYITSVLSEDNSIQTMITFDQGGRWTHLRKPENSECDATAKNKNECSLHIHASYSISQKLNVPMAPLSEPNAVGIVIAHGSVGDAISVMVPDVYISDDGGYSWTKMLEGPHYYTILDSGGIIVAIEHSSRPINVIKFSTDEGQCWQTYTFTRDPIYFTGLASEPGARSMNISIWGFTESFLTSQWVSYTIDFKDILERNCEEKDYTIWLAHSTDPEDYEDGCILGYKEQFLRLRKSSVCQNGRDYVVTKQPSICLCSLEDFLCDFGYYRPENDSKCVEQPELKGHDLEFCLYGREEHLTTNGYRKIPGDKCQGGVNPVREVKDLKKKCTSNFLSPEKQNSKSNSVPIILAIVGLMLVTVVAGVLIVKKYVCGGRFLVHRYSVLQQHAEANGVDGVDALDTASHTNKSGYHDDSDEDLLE
full-length sortilin-myc/His: residues 78-831 of Q99523
Sort 78-385-CFP: residues 78-385 of Q99523
Sort 385-786-CFP: residues 385-786 of Q99523
Sort 756-831-CFP: residues 756-831 of Q99523
Sort 779-831-CFP: residues 779-831 of Q99523

Key:
[1] = target: full-length sortilin-myc/His (human) (UniProt Q99523); assay: co-IP; HEK293 cells co-transfected with both constructs; RIPA lysates (250 µg) precleared, incubated with protein G bead-immobilised antibody at 4°C overnight, five washes, Western blot; rabbit or mouse IgG and CFP or YFP as negative controls
[2] = target: APP 1-287-YFP (human) (UniProt P05067); assay: as above
[3] = target: APP695 (UniProt P05067); assay: as above
[4] = target: APP695 (UniProt P05067); assay: co-IP; competition binding assay: lysates of HEK293 cells transfected separately with APP695 or a sortilin-CFP construct; APP695 lysate pre-incubated 1 h at 4°C with competitor or control (BSA or scramble peptide, 10 µM), then combined with the sortilin lysate for 2 h at 4°C; precipitated with anti-APP, blotted with goat anti-GFP
[5] = target: APP770-YFP (human) (UniProt P05067); assay: co-IP; HEK293 cells co-transfected with both constructs; RIPA lysates (250 µg) precleared, incubated with protein G bead-immobilised antibody at 4°C overnight, five washes, Western blot; rabbit or mouse IgG and CFP or YFP as negative controls
[6] = target: APP 1-141-YFP (human) (UniProt P05067); assay: as above

binding [1] | binding [3] | Substance | also measured
binds |  | APP 1-141-YFP (from UniProt P05067 18-141) (domain or fragment) | 
binds |  | APP 1-287-YFP (from UniProt P05067 18-287) (domain or fragment) | 
binds |  | APP 1-542-YFP (from UniProt P05067 18-542) (domain or fragment) | 
binds |  | APP 713-770-YFP (from UniProt P05067 713-770) (domain or fragment) | 
 | binds | Sort 78-385-CFP (from UniProt Q99523-1 78-385) (domain or fragment) | binding [2]: binds; binding [4]: binds
 | no binding | Sort 385-786-CFP (from UniProt Q99523-1 385-786) (domain or fragment) | 
 | binds | Sort 756-831-CFP (from UniProt Q99523-1 756-831) (domain or fragment) | 
 | binds | Sort 779-831-CFP (from UniProt Q99523-1 779-831) (domain or fragment) | 
 |  | full-length sortilin-myc/His (from UniProt Q99523-1 78-831) | binding [5]: binds; binding [6]: binds
